Screen size: about 310,000 compounds; about 2,200 (0.71%) showed an effect of 50% or more. The effect is printed as a negative number. The list shows a part of the results.

This note sets out measurements from publication PMC4336329 (PLoS ONE, 2015).

The target of the experiment is human ether-à-go-go-related gene (hERG) potassium channel (human, UniProt Q12809). Kind of experiment: primary screen, population patch clamp on CHO cells stably expressing hERG.
Chain of human ether-à-go-go-related gene (hERG) potassium channel (Q12809 whole entry, looked up): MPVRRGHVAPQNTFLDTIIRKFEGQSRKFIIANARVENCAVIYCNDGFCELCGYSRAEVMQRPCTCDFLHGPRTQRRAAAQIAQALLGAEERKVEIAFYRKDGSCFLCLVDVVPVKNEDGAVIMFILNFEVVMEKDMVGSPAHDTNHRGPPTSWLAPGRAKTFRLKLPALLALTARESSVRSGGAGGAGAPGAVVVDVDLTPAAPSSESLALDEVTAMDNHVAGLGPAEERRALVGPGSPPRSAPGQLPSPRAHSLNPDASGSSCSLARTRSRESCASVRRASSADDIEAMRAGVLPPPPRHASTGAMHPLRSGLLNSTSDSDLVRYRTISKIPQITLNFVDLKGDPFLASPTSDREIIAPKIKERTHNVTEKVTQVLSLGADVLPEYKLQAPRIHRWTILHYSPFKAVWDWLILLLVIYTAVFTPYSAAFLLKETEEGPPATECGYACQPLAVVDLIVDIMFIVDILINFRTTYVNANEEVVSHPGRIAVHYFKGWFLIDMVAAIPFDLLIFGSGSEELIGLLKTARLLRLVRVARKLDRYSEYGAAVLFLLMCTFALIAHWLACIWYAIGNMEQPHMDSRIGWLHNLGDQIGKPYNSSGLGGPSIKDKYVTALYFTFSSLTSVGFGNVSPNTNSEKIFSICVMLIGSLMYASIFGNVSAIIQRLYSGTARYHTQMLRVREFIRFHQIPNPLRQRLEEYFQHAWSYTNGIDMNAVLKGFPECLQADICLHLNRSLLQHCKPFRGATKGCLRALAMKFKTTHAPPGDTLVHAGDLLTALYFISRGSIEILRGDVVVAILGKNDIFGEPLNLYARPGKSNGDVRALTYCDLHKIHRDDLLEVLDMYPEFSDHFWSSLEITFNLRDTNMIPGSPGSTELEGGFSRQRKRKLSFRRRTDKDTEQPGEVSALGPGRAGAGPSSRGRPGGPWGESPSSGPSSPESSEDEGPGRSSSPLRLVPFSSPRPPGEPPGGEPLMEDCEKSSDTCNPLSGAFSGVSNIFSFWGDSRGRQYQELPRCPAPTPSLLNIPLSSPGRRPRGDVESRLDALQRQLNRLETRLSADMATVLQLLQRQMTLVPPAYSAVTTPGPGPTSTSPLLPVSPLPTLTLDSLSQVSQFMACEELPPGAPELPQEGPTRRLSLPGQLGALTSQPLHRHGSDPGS
In the case of `CCN1C(=O)[C@H]2[C@@H](c3ccc(-c4ccc(OC)cc4)c(OC)c3)N3CCCC[C@@]3(C(=O)OC)[C@H]2C1=O.O=C(O)C(F)(F)F`, the “hERG current change (%, negative = inhibition) at 1uM” value was 12.4%.

Consider `O=C(NCC1CCCN1S(=O)(=O)c1ccccc1)C(=O)NC1CC1` (centres unmarked), for which the “hERG current change (%, negative = inhibition) at 1uM” value turned out to be 4.91%.

For `CCOc1ccc2nc(SCC(=O)Nc3ccc4c(c3)OCCO4)[nH]c2c1`, the “hERG current change (%, negative = inhibition) at 1uM” value came to 14%.

On to `COC(=O)C1=C(C)N(Cc2ccccc2)C(=O)N[C@H]1c1ccc(Br)cc1`, for which the “hERG current change (%, negative = inhibition) at 1uM” value is reported as 2.38%.

As for `COc1ccc(Nc2ccc(N3C(=O)CCC3=O)cc2[N+](=O)[O-])cn1`, the “hERG current change (%, negative = inhibition) at 1uM” value is -2.97%.

As to `Cc1ccc(C)c(NC(=O)C2CCN(C(=O)c3cccs3)CC2)c1`, the “hERG current change (%, negative = inhibition) at 1uM” value stood at 10.3%.

For `COc1ccc(NC(=O)CSc2nnc(C)s2)cc1S(=O)(=O)N1CCOCC1`, the “hERG current change (%, negative = inhibition) at 1uM” value came to 2.92%.

As to `COc1ccccc1CN1CC(C(=O)NCCN2CCOC2=O)CCC1=O` (centres unmarked), the “hERG current change (%, negative = inhibition) at 1uM” value is reported as 9.66%.

As to `COc1ccc(CC(=O)OCC(=O)Nc2ccc(OC(F)F)cc2)cc1OC`, the “hERG current change (%, negative = inhibition) at 1uM” value is -2.69%.

With `COc1ccc(CC(=O)NNC(=O)c2ccc(Br)o2)cc1`, the “hERG current change (%, negative = inhibition) at 1uM” value is recorded as -1.87%.

In the case of `CCN(CC)c1c([N+](=O)[O-])c(=O)sc2ccccc12`, the “hERG current change (%, negative = inhibition) at 1uM” value amounted to 10.8%.

As for `Cc1ccc(S(=O)(=O)N2CC=C(C(=O)NC3CC3)CC2)cc1`, the “hERG current change (%, negative = inhibition) at 1uM” value stood at 7.92%.

In the case of `CCOC(=O)C1C(=O)CC(O)(c2ccccc2)CC1c1ccccc1` (centres unmarked), the “hERG current change (%, negative = inhibition) at 1uM” value is on record as 5.47%.

Turning to `O=C(Cn1nc(-c2ccccc2)ccc1=O)NCCN1CCN(c2cccc(Cl)c2)CC1`, the “hERG current change (%, negative = inhibition) at 1uM” value was determined as 6.09%.

With `Cn1c(CCNC(=O)c2ccco2)nc2cc(NC(=O)c3ccccc3Cl)ccc21`, the “hERG current change (%, negative = inhibition) at 1uM” value is 11.5%.

`CCCCOc1ccc(-c2c(C#N)c(N)nc(SCC(N)=O)c2C#N)cc1`: the “hERG current change (%, negative = inhibition) at 1uM” value is 2.33%.

For the molecule `CN(C)c1ccc(CN2CCCC(O)C2)cc1` (centres unmarked), the “hERG current change (%, negative = inhibition) at 1uM” value is listed as 12.8%.

`O=C(Nc1ccc2c(c1)OCCO2)NC12CC3CC(CC(C3)C1)C2`: the “hERG current change (%, negative = inhibition) at 1uM” value is on record as 16.9%.

Turning to `Cc1nc(Nc2ccc3c(c2)OCO3)c2oc3ccccc3c2n1`, the “hERG current change (%, negative = inhibition) at 1uM” value came out at 7.66%.

Take `C/C(Cn1cnc([N+](=O)[O-])n1)=N\NC(=O)c1cccc(F)c1`: the “hERG current change (%, negative = inhibition) at 1uM” value turned out to be 7.2%.

In the case of `CCc1cccc(NC(=O)c2ccc(Cn3nc(C)cc3C)o2)c1`, the “hERG current change (%, negative = inhibition) at 1uM” value is given as -4.64%.

For `Cc1ccc(NC(=S)Nc2ccc(OC(F)F)c(Cl)c2)cc1Cl`, the “hERG current change (%, negative = inhibition) at 1uM” value is listed as 12.6%.

Take `O=C(Cn1nc(C(F)(F)F)c2c1CCC2)N1CCN(c2ccccc2)CC1`: the “hERG current change (%, negative = inhibition) at 1uM” value is listed as -1.5%.

Regarding `Cc1ccc(C)n1-c1nn(S(=O)(=O)c2cccc(C(F)(F)F)c2)c2cccc(F)c12`, the “hERG current change (%, negative = inhibition) at 1uM” value is listed as -11.3%.

Consider `COc1cc(NC(=O)CN(C)S(=O)(=O)c2ccc(C)cc2)cc(OC)c1`, for which the “hERG current change (%, negative = inhibition) at 1uM” value worked out at 4.72%.

Consider `C#C[C@]1(OC(C)=O)CCC2C3CCC4=CC(=O)CC[C@@H]4C3CC[C@@]21C` (some centres unmarked), for which the “hERG current change (%, negative = inhibition) at 1uM” value is on record as 9.24%.

Turning to `CCN1CCn2c3c(c4cc(Cl)ccc42)CCCC31.Cl` (centres unmarked), the “hERG current change (%, negative = inhibition) at 1uM” value is given as -5.19%.

For the molecule `CC(/C=N\N1CCN(Cc2ccc(C)cc2)CC1)=C\c1ccccc1`, the “hERG current change (%, negative = inhibition) at 1uM” value worked out at 14%.

With `CCOc1ccc(NC(=S)N(CCc2c(C)[nH]c3ccccc23)Cc2cccnc2)cc1`, the “hERG current change (%, negative = inhibition) at 1uM” value is -4.48%.

Regarding `CCN=C1S/C(=C\c2cc(OCC)c(O)cc2Br)C(=O)N1CC`, the “hERG current change (%, negative = inhibition) at 1uM” value was found to be 9.89%.

For the molecule `Cc1ccc(CNn2cn[nH]c2=S)cc1`, the “hERG current change (%, negative = inhibition) at 1uM” value worked out at 4.25%.

Take `CCc1ccc(OCC(O)CN2CCN(c3ccccc3)CC2)cc1.Cl` (centres unmarked): the “hERG current change (%, negative = inhibition) at 1uM” value is reported as -23%.

`CCc1cccc(C)c1NC(=O)COC(=O)Cn1c(C)csc1=O`: the “hERG current change (%, negative = inhibition) at 1uM” value is 14.1%.

With `CCOC(=O)c1[nH]n(-c2ccc(Cl)cc2)c(=O)c1C`, the “hERG current change (%, negative = inhibition) at 1uM” value is on record as 0.0081%.

Consider `CC(=O)C1=C(c2ccccc2)NC(=O)NC1c1cccs1` (centres unmarked), for which the “hERG current change (%, negative = inhibition) at 1uM” value amounted to 17.9%.

Consider `Cc1c(N2C(=O)/C(=C/c3cccc4ccccc34)SC2=S)c(=O)n(-c2ccccc2)n1C`, for which the “hERG current change (%, negative = inhibition) at 1uM” value was 7.42%.

In the case of `Fc1ccc(/C=C/c2nnc(-c3cccs3)o2)cc1`, the “hERG current change (%, negative = inhibition) at 1uM” value was 15.8%.

Turning to `COc1ccccc1N(C)S(=O)(=O)c1ccc(C(=O)OCC(=O)c2c[nH]c3ccccc23)cc1`, the “hERG current change (%, negative = inhibition) at 1uM” value is on record as 19.9%.

`Cc1ccc(NS(=O)(=O)c2ccc3[nH]c(=O)sc3c2)cc1`: the “hERG current change (%, negative = inhibition) at 1uM” value was determined as 12.9%.

As for `COc1ccccc1N(CCC#N)C(=O)CSc1nc(-c2ccccc2)cn1N`, the “hERG current change (%, negative = inhibition) at 1uM” value is 7.72%.

As for `CC(=O)Nc1ccc(S(=O)(=O)NC(C(=O)O)C2=CCC=CC2)cc1` (centres unmarked), the “hERG current change (%, negative = inhibition) at 1uM” value worked out at 15.9%.

For `CC1=NN2C(=N)/C(=C\c3cc(C)n(-c4cccc(C)c4)c3C)C(=O)N=C2S1`, the “hERG current change (%, negative = inhibition) at 1uM” value worked out at 12%.

With `Fc1ccc(CNCCC(Cc2ccccc2)c2ccco2)cc1` (centres unmarked), the “hERG current change (%, negative = inhibition) at 1uM” value was -4.42%.

For the molecule `O=C(COC(=O)/C=C/c1cccs1)Nc1ccc(F)cc1`, the “hERG current change (%, negative = inhibition) at 1uM” value is 3.94%.

For `CC(=O)Oc1ccc(C(=O)Nc2ccc(S(=O)(=O)NCC3CCCO3)cc2)cc1` (centres unmarked), the “hERG current change (%, negative = inhibition) at 1uM” value is listed as 13.6%.

For `N#Cc1c(N2CCN(C(=O)c3ccccc3Cl)CC2)nc(-c2ccccc2)c2c1CCCC2`, the “hERG current change (%, negative = inhibition) at 1uM” value is on record as 17.8%.

For `CCC(C)NC(=O)CC(NS(=O)(=O)c1ccc(NC(C)=O)cc1)C(C)C` (centres unmarked), the “hERG current change (%, negative = inhibition) at 1uM” value was determined as 14.2%.

Consider `CCCS(=O)(=O)N1CCN(Cc2c[nH]c3ccccc23)CC1.O=C(O)C(=O)O`, for which the “hERG current change (%, negative = inhibition) at 1uM” value is -3.9%.

In the case of `O=c1[nH]cnc2scc(-c3ccsc3)c12`, the “hERG current change (%, negative = inhibition) at 1uM” value stood at 2.11%.

On to `COc1ccc(/C=C/C(=O)NCCOc2ccccc2OC)cc1`, for which the “hERG current change (%, negative = inhibition) at 1uM” value was determined as 18.5%.

Consider `CCCn1nnnc1SCC(=O)N(C(C)C)C(C)C`, for which the “hERG current change (%, negative = inhibition) at 1uM” value is reported as 1.69%.

Take `Cc1c(C)c2ccc(OCC(=O)N3CCN(c4ccc(F)cc4)CC3)c(C)c2oc1=O`: the “hERG current change (%, negative = inhibition) at 1uM” value came to 15.5%.

On to `Cc1cc2nc(CCN(C(=S)NCC3CCCO3)C3CCCC3)[nH]c2cc1C` (centres unmarked), for which the “hERG current change (%, negative = inhibition) at 1uM” value is reported as -7.89%.

`c1ccc(SCc2nc(-c3cccnc3)no2)cc1`: the “hERG current change (%, negative = inhibition) at 1uM” value is recorded as 10.3%.

As for `O=C(COc1cc2oc(=O)c3c(c2cc1Cl)CCC3)Nc1cccnc1`, the “hERG current change (%, negative = inhibition) at 1uM” value is recorded as 14%.

Turning to `COc1ccc(/C=N/n2cnc3c([nH]c4ccc(C)cc43)c2=O)cc1CN1CCCC1`, the “hERG current change (%, negative = inhibition) at 1uM” value is reported as -12.7%.
